Results are given in words; binding and its absence hold for the method and conditions named. In cells and extracts the contact can be indirect. Some binding calls cover weakened binding; strength is not graded here.

Chains of the proteins cited; added tags and fusions are not shown.
UniProt Q8BSQ9: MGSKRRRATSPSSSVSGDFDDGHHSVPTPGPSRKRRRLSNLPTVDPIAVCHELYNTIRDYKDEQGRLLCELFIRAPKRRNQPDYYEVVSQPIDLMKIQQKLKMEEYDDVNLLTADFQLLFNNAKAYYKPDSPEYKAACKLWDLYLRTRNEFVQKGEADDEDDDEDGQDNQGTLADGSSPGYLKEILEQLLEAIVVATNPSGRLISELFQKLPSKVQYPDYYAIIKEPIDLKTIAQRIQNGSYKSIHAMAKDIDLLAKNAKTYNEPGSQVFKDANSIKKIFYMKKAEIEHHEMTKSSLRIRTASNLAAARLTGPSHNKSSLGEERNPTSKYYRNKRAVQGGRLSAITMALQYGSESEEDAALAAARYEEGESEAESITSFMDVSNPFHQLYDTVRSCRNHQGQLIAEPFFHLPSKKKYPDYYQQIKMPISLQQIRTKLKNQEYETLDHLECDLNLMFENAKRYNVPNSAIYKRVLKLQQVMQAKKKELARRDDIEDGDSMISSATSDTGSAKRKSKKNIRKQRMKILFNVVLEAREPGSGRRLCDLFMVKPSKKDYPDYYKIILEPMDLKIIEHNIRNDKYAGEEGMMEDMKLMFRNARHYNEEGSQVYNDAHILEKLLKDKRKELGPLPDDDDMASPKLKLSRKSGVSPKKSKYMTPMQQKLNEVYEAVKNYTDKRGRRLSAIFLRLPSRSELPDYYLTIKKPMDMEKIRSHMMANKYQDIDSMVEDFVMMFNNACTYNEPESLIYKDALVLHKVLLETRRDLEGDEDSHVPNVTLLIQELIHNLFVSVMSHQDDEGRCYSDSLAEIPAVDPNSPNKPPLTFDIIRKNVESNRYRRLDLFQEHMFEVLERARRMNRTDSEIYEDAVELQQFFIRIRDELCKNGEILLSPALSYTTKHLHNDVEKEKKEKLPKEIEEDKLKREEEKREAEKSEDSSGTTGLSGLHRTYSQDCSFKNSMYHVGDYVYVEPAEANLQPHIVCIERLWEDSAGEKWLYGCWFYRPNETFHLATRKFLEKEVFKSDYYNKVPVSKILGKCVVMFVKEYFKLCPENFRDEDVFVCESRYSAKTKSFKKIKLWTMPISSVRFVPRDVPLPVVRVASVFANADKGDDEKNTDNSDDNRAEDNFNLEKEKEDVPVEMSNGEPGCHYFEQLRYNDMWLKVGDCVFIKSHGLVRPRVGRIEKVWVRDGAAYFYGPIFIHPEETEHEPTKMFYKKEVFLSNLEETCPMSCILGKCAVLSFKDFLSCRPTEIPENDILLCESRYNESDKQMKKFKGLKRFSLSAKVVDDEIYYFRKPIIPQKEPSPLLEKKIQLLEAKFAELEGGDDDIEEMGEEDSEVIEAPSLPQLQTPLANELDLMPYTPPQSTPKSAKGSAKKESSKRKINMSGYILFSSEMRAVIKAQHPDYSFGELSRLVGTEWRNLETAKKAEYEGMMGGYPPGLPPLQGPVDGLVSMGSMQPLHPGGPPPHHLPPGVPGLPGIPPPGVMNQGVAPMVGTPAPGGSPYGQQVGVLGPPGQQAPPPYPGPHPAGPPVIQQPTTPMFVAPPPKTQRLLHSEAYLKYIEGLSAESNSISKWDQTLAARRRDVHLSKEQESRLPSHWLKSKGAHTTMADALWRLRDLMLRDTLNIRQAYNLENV

The target in this assay is PBRM1 (mouse (endogenous in liver)) (UniProt Q8BSQ9). The assay is described as follows: co-IP; native PBRM1 IP from MNase-digested liver nuclear extract of wild-type (CT0-CT20) or FH-H3.3A (CT8, CT20) mice; isotype-matched IgG as negative control; immunoblots. (In general: Immunoblotting shows a protein as a band on a membrane.)

B1: BRD7 (protein, UniProt O88665 1-651)
chain: MGKKHKKHKSDRHFYEEYVEKPLKLVLKVGGSEVTELSTGSSGHDSSLFEDRSDHDKHKDRKRKKRKKGEKQAPGEEKGRKRRRVKEDKKKRDRDRAENEVDRDLQCHVPIRLDLPPEKPLTSSLAKQEEVEQTPLQEALNQLMRQLQRKDPSAFFSFPVTDFIAPGYSMIIKHPMDFSTMKEKIKNNDYQSIEELKDNFKLMCTNAMIYNKPETIYYKAAKKLLHSGMKILSQERIQSLKQSIDFMSDLQKTRKQKERTDACQSGEDSGCWQREREDSGDAETQAFRSPAKDNKRKDKDVLEDKWRSSNSEREHEQIERVVQESGGKLTRRLANSQCEFERRKPDGTTTLGLLHPVDPIVGEPGYCPVRLGMTTGRLQSGVNTLQGFKEDKRNRVTPVLYLNYGPYSSYAPHYDSTFANISKDDSDLIYSTYGEDSDLPNNFSISEFLATCQDYPYVMADSLLDVLTKGGHSRSLQDLDMSSPEDEGQTRALDTAKEAEITQIEPTGRLESSSQDRLTALQAVTTFGAPAEVFDSEEAEVFQRKLDETTRLLRELQEAQNERLSTRPPPNMICLLGPSYREMYLAEQVTNNLKELTQQVTPGDVVSIHGVRKAMGISVPSPIVGNSFVDLTGECEEPKETSTAECGPDAS
With B1, the binding entry was “binds”.

B2: PHF10 (protein, UniProt Q9D8M7 1-497)
chain: MTAAGPGAAPSPGRCDSDPASPGAQSPKDDNEDNSNDGTHPCKRRRMGSGDSSRSCETSSQDLSFSYYPAENLIEYKWPPDETGEYYMLQEQVSEYLGVTSFKRKYPDLERRDLSHKEKLYLRELNVITETQCTLGLTALRSDEVIDLMIKEYPAKHAEYSVILQEKERQRITDHYKEYSQMQQQSTQKVEASKVPEYIKKAAKKAAEFNSNLNRERMEERRAYFDLQTHVIQVPQGKYKVLPTDRTKVSSYPVALIPGQFQEYYKRYSPDELRYLPLNTALYEPPLDPELPALDSDGDSDDGEDGGGDEKRKNKGTSDSSSGNVSEGDSPPDSQEDTFHGRQKSKDKMATPRKDGSKRSVLSKSAPGYKPKVIPNALCGICLKGKESNKKGKAESLIHCSQCDNSGHPSCLDMTMELVSMIKTYPWQCMECKTCIICGQPHHEEEMMFCDVCDRGYHTFCVGLGAIPSGRWICDCCQRAPPTPRKVGRRGKNSKEG
Regarding B2, the binding result is on record as “binds”.

These data come from PMC12511354.
